Source: the supplement of paper PMC7125110
± gives the standard error. For part of these data: Variants at the background level are over-represented here.

B1: glmS ribozyme (parent)
chain: AUAAAAGCGCCAGAACUACAGAAAUGUAGUUGACGAGGAGGAGGUUUAUCGAAUUUUCGGCGGAUGCCUCCAAA

Tests used:
Conditions in all cases: with glucosamine-6-phosphate
[1] = variants of: B1; test: self-cleavage kobs at 640 uM GlcN6P; higher = faster cleavage; RNA array
In short: (§1)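 In situ transcription by E. coli RNA polymerase produced barcoded ribozyme variants on sequenced MiSeq chips, and a hybridised Cy3 probe tracked them at 37 °C. Glucosamine-6-phosphate was flowed in at 40 μM to 10 mM in HEPES/KCl/Mg(OAc)2 buffer. kcat and KM were taken from weighted Michaelis–Menten fits of kobs values from exponential decay fits.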

[2] = variants of: B1; test: self-cleavage kobs at 160 uM GlcN6P; higher = faster cleavage; RNA array
In short: as §1

[3] = variants of: B1; test: self-cleavage kobs at 2500 uM GlcN6P; higher = faster cleavage; RNA array
In short: as §1

[4] = variants of: B1; test: self-cleavage kobs at 10000 uM GlcN6P; higher = faster cleavage; RNA array
In short: as §1

Row | Variant | self-cleavage kobs at 640 uM GlcN6P [1] | self-cleavage kobs at 160 uM GlcN6P [2] | self-cleavage kobs at 2500 uM GlcN6P [3] | self-cleavage kobs at 10000 uM GlcN6P [4]
1 | A14C G38A A42G | < 1e-05 s⁻¹ | < 1e-05 s⁻¹ | < 1e-05 s⁻¹ | –
2 | A14U U49G G51A | < 1e-05 s⁻¹ | – | – | –
3 | A14U A36U C67U | < 1e-05 s⁻¹ | – | – | –
4 | C16A A33U G40A | < 1e-05 s⁻¹ | – | < 1e-05 s⁻¹ | –
5 | G13U A64C | < 1e-05 s⁻¹ | – | – | –
6 | A14G G35U G37C U47C | < 1e-05 s⁻¹ | – | – | –
7 | C16G U30A | 0.00012 ± 2.3e-05 s⁻¹ | 3.9e-05 ± 1.2e-05 s⁻¹ | 0.000313 ± 6.1e-05 s⁻¹ | 0.000372 ± 9.2e-05 s⁻¹
8 | C16G A52C U56A | < 1e-05 s⁻¹ | < 1e-05 s⁻¹ | – | –
9 | G13C U31G G40A C68A | < 1e-05 s⁻¹ | – | < 1e-05 s⁻¹ | –
10 | A15G G29U G32A A42C C61G | < 1e-05 s⁻¹ | < 1e-05 s⁻¹ | – | –
11 | G13U A33U G35U | < 1e-05 s⁻¹ | – | – | –
12 | A15C G38U C71U | < 1e-05 s⁻¹ | – | < 1e-05 s⁻¹ | –
13 | C16G U31C A48G U65G | < 1e-05 s⁻¹ | – | – | –
14 | A15G A42U | 6.62e-05 ± 1.7e-05 s⁻¹ | 2.77e-05 ± 1.4e-05 s⁻¹ | 0.000216 ± 3.8e-05 s⁻¹ | 0.000203 ± 3e-05 s⁻¹
15 | A15G U31A U47G | 0.000471 ± 0.00011 s⁻¹ | – | 0.00142 ± 0.0005 s⁻¹ | –
16 | A14U U57G C61G | < 1e-05 s⁻¹ | – | – | –
17 | A15C A33U G60A | < 1e-05 s⁻¹ | – | – | –
18 | A15U G40C C58A C68U C71A | < 1e-05 s⁻¹ | – | – | –
19 | A14U G59A G60U | < 1e-05 s⁻¹ | – | – | –
20 | A15G A36U G41U C70U | < 1e-05 s⁻¹ | – | < 1e-05 s⁻¹ | –

Row | Variant | self-cleavage kobs at 640 uM GlcN6P [1] | self-cleavage kobs at 160 uM GlcN6P [2] | self-cleavage kobs at 2500 uM GlcN6P [3] | self-cleavage kobs at 10000 uM GlcN6P [4]
21 | C16G G51U G60C | < 1e-05 s⁻¹ | < 1e-05 s⁻¹ | < 1e-05 s⁻¹ | –
22 | A15U G32U C34U C50A | < 1e-05 s⁻¹ | – | – | –
23 | A15U A36U C67U | < 1e-05 s⁻¹ | – | – | –
24 | A15C C16A G35U | < 1e-05 s⁻¹ | – | – | –
25 | G13U G35U U45G | < 1e-05 s⁻¹ | – | – | –
26 | A14U U65C | 3.59e-05 ± 8.9e-06 s⁻¹ | – | 9.87e-05 ± 1.3e-05 s⁻¹ | 7.83e-05 ± 7.7e-06 s⁻¹
27 | A14U U65A | 0.000203 ± 2.7e-05 s⁻¹ | 4.54e-05 ± 1.3e-05 s⁻¹ | 0.000449 ± 0.00012 s⁻¹ | 0.00105 ± 0.00012 s⁻¹
28 | A14C G40C | 0.000114 ± 1.8e-05 s⁻¹ | 2.58e-05 ± 1.1e-05 s⁻¹ | 0.000285 ± 3.3e-05 s⁻¹ | 0.000533 ± 7.6e-05 s⁻¹
29 | C16A U17C G29C U31A A39C G63C C71G | < 1e-05 s⁻¹ | < 1e-05 s⁻¹ | – | –
30 | A14C G41A C70U | 0.00173 ± 0.00026 s⁻¹ | – | 0.00489 ± 0.0012 s⁻¹ | 0.0111 ± 0.0021 s⁻¹
31 | A14C G41U G66C | < 1e-05 s⁻¹ | – | < 1e-05 s⁻¹ | –
32 | A14G G32C U45A C70G | < 1e-05 s⁻¹ | – | – | –
33 | G13U A39U A48U G51A U55G C70A | < 1e-05 s⁻¹ | – | – | –
34 | A14U G60A | < 1e-05 s⁻¹ | < 1e-05 s⁻¹ | – | –
35 | A15G C58A C70U | 8.95e-05 ± 1.1e-05 s⁻¹ | 0.000138 ± 2.8e-05 s⁻¹ | 0.000182 ± 4.8e-05 s⁻¹ | 0.000281 ± 5.3e-05 s⁻¹
36 | A14G G32C C70G | < 1e-05 s⁻¹ | – | – | –
37 | G13U A42U | < 1e-05 s⁻¹ | < 1e-05 s⁻¹ | < 1e-05 s⁻¹ | –
38 | A15U G35C | < 1e-05 s⁻¹ | < 1e-05 s⁻¹ | < 1e-05 s⁻¹ | –
39 | A14C G29C G35U U49A | < 1e-05 s⁻¹ | – | < 1e-05 s⁻¹ | –
40 | C16U A42C A48U C67A | < 1e-05 s⁻¹ | < 1e-05 s⁻¹ | – | –

Row | Variant | self-cleavage kobs at 640 uM GlcN6P [1] | self-cleavage kobs at 160 uM GlcN6P [2] | self-cleavage kobs at 2500 uM GlcN6P [3] | self-cleavage kobs at 10000 uM GlcN6P [4]
41 | A14U A15C A42C A52U | < 1e-05 s⁻¹ | – | – | –
42 | G13U G32U A36U G66A C67U | < 1e-05 s⁻¹ | – | < 1e-05 s⁻¹ | –
43 | A14U U31C G37C | < 1e-05 s⁻¹ | – | – | –
44 | A14U G37U A39C G41C G51A | < 1e-05 s⁻¹ | – | – | –
45 | A15U U45C C50G U69G | < 1e-05 s⁻¹ | – | < 1e-05 s⁻¹ | –
46 | G13C G41U U65C | < 1e-05 s⁻¹ | < 1e-05 s⁻¹ | – | –
47 | A15U U46A | 8.53e-05 ± 9.5e-06 s⁻¹ | 3.16e-05 ± 1.1e-05 s⁻¹ | 0.000225 ± 2.3e-05 s⁻¹ | 0.000303 ± 3.2e-05 s⁻¹
48 | A14U A36C U47C | < 1e-05 s⁻¹ | – | – | –
49 | A14C C50G | 0.000625 ± 0.00028 s⁻¹ | 5.43e-05 ± 1.5e-05 s⁻¹ | 4.32e-05 ± 1.3e-05 s⁻¹ | –
50 | A15U C50G G66C C71G | 7.22e-05 ± 2.8e-05 s⁻¹ | – | 9.27e-05 ± 3e-05 s⁻¹ | –
51 | A14U U47C C58G C68G | 5.55e-05 ± 1.6e-05 s⁻¹ | – | – | –
52 | A15G C16A G32U G38U | < 1e-05 s⁻¹ | – | – | –
53 | C16G U46C U49C G60C C70A | < 1e-05 s⁻¹ | – | – | –
54 | G13U U57G G60U | < 1e-05 s⁻¹ | – | – | –
55 | A15G G51C G59A | < 1e-05 s⁻¹ | < 1e-05 s⁻¹ | < 1e-05 s⁻¹ | –
56 | A15C C16A A39C G41U U45C | < 1e-05 s⁻¹ | – | < 1e-05 s⁻¹ | –
57 | A14G C58G U69A | 8.05e-05 ± 3.6e-05 s⁻¹ | 3.98e-05 ± 2e-05 s⁻¹ | 3.74e-05 ± 1.9e-05 s⁻¹ | –
58 | A15G G40U C70A | 0.000328 ± 8e-05 s⁻¹ | 4.48e-05 ± 1.3e-05 s⁻¹ | 0.000773 ± 0.00016 s⁻¹ | 0.000531 ± 0.00014 s⁻¹
